Source: the supplement of paper PMC4967469

Compound: O=C1NC(=NCc2cccs2)S/C1=C\c1ccc2ncccc2c1 [RO-3306]
Experiment: Viability of human cancer cell lines after 72 h of drug (GDSC screen)
Settings: top dose 5 µM; top dose inferred
Protocol: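 Human cancer cell lines in 384-well plates, medium with 10% serum, drug for 72 h over a 256-fold dose range (nine 2-fold or five 4-fold steps up to the top dose). Adherent lines were fixed and stained with the nucleic acid dye Syto60, suspension lines read with resazurin; signal relative to control wells, capped at 0 and 100%. One two-parameter sigmoid per drug and line, fitted in a mixed model over all curves with the slope shared within a line.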

| Cell Line | AUC | IC50 [µM] |
| --- | --- | --- |
| NCI-H2172 (non-small cell lung carcinoma, adherent) | 0.982 | > 5 |
| NCI-H2227 (small cell lung carcinoma, semi-adherent) | 0.984 | > 5 |
| NCI-H2291 (lung adenocarcinoma, adherent) | 0.972 | > 5 |
| NCI-H2342 (lung adenocarcinoma, adherent) | 0.986 | > 5 |
| NCI-H2347 (lung adenocarcinoma, adherent) | 0.975 | > 5 |
| NCI-H2405 (lung adenocarcinoma, adherent) | 0.853 | 4.58 |
| NCI-H2444 (non-small cell lung carcinoma, adherent) | 0.981 | > 5 |
| NCI-H2452 (mesothelioma, adherent) | 0.969 | > 5 |
| NCI-H3122 (lung adenocarcinoma, adherent) | 0.974 | > 5 |
| NCI-N87 (stomach, adherent) | 0.961 | > 5 |
| NCI-SNU-1 (stomach, suspension) | 0.972 | > 5 |
| NCI-SNU-5 (stomach, suspension) | 0.982 | > 5 |
| NCI-SNU-16 (stomach, suspension) | 0.988 | > 5 |
| NEC8 (testis, adherent) | 0.857 | 3.11 |
| NH-12 (neuroblastoma, adherent) | 0.98 | > 5 |
| NKM-1 (acute myeloid leukaemia, suspension) | 0.949 | > 5 |
| NMC-G1 (glioma, adherent) | 0.982 | > 5 |
| NOMO-1 (acute myeloid leukaemia, suspension) | 0.92 | > 5 |
| NOS-1 (osteosarcoma, adherent) | 0.968 | > 5 |
| NU-DUL-1 (B-cell lymphoma, suspension) | 0.98 | > 5 |
| NUGC-3 (stomach, adherent) | 0.968 | > 5 |
| NUGC-4 (stomach, adherent) | 0.971 | > 5 |
| NY (osteosarcoma, adherent) | 0.846 | 3.58 |
| OACM5-1 (oesophagus, semi-adherent) | 0.986 | > 5 |
| OACp4C (oesophagus, adherent) | 0.926 | > 5 |
| OAW-28 (ovary, adherent) | 0.919 | > 5 |
| OAW-42 (ovary, adherent) | 0.938 | > 5 |

| Cell Line | AUC | IC50 [µM] |
| --- | --- | --- |
| OC-314 (ovary, adherent) | 0.991 | > 5 |
| OCI-AML2 (acute myeloid leukaemia, suspension) | 0.995 | > 5 |
| OCI-AML3 (acute myeloid leukaemia, suspension) | 0.989 | > 5 |
| OCI-AML5 (acute myeloid leukaemia, suspension) | 0.989 | > 5 |
| OCI-LY7 (B-cell lymphoma, suspension) | 0.881 | 2.78 |
| OCI-LY-19 (B-cell lymphoma, suspension) | 0.981 | > 5 |
| OCI-M1 (acute myeloid leukaemia, suspension) | 0.994 | > 5 |
| OCUB-M (breast, adherent) | 0.972 | > 5 |
| OCUM-1 (stomach, adherent) | 0.904 | > 5 |
| OE19 (oesophagus, adherent) | 0.982 | > 5 |
| OE21 (oesophagus, adherent) | 0.862 | > 5 |
| OE33 (oesophagus, adherent) | 0.984 | > 5 |
| OMC-1 (cervix, adherent) | 0.946 | > 5 |
| ONS-76 (medulloblastoma, adherent) | 0.931 | > 5 |
| OPM-2 (myeloma, suspension) | 0.994 | > 5 |
| OS-RC-2 (kidney, adherent) | 0.959 | > 5 |
| OSC-19 (head and neck, adherent) | 0.943 | > 5 |
| OSC-20 (head and neck, adherent) | 0.884 | > 5 |
| OV-7 (ovary, adherent) | 0.969 | > 5 |
| OV-17R (ovary, adherent) | 0.923 | > 5 |
| OV-56 (ovary, adherent) | 0.981 | > 5 |
| OV-90 (ovary, adherent) | 0.962 | > 5 |
| OVCA420 (ovary, adherent) | 0.968 | > 5 |
| OVCA433 (ovary, adherent) | 0.948 | > 5 |
| OVCAR-3 (ovary, adherent) | 0.962 | > 5 |
| OVCAR-4 (ovary, adherent) | 0.911 | > 5 |
| OVCAR-5 (ovary, adherent) | 0.915 | > 5 |

| Cell Line | AUC | IC50 [µM] |
| --- | --- | --- |
| OVCAR-8 (ovary, adherent) | 0.984 | > 5 |
| OVISE (ovary, adherent) | 0.969 | > 5 |
| OVK-18 (ovary, adherent) | 0.868 | > 5 |
| OVKATE (ovary, adherent) | 0.969 | > 5 |
| OVMIU (ovary, adherent) | 0.969 | > 5 |
| OVTOKO (ovary, adherent) | 0.938 | > 5 |
| P12-ICHIKAWA (T-cell lymphoblastic leukaemia, suspension) | 0.987 | > 5 |
| P30-OHK (lymphoblastic leukaemia, suspension) | 0.99 | > 5 |
| P31-FUJ (acute myeloid leukaemia, suspension) | 0.996 | > 5 |
| P32-ISH (Burkitt lymphoma, suspension) | 0.993 | > 5 |
| PA-1 (ovary, adherent) | 0.992 | > 5 |
| PA-TU-8902 (pancreas, adherent) | 0.982 | > 5 |
| PANC-02-03 (pancreas, adherent) | 0.941 | > 5 |
| PANC-03-27 (pancreas, adherent) | 0.981 | > 5 |
| PANC-04-03 (pancreas, adherent) | 0.972 | > 5 |
| PANC-10-05 (pancreas, adherent) | 0.98 | > 5 |
| PC-3 (prostate, adherent) | 0.888 | > 5 |
| PC-3 [JPC-3] (lung adenocarcinoma, adherent) | 0.968 | > 5 |
| PC-14 (lung adenocarcinoma, adherent) | 0.975 | > 5 |
| PCI-4B (head and neck, adherent) | 0.881 | 4.76 |
| PCI-6A (head and neck, adherent) | 0.685 | 1.02 |
| PCI-15A (head and neck, adherent) | 0.965 | > 5 |
| PCI-30 (head and neck, adherent) | 0.96 | > 5 |
| PE/CA-PJ15 (head and neck, adherent) | 0.833 | 3.6 |
| PEO1 (ovary, adherent) | 0.924 | > 5 |
| PF-382 (T-cell lymphoblastic leukaemia, suspension) | 0.986 | > 5 |

Lines with a small IC50 respond at low doses; a limit (>, <) means that the fit lies beyond the doses tested. The AUC spans the tested range (256-fold, ending at the top dose) of the same fit; values near 1 show little effect. An inferred top dose was calculated from the reported fits.
